The text below walks through data of patent CN101663321A.

Test [1] concerns the target denatured soluble hLIGHT (boiled in 2x SDS sample buffer) (human) (UniProt O43557). Description: dot blot: serial dilutions of hLIGHT spotted on PVDF, probed with 5 μg/ml antibody.
The target in test [2] is soluble FLAG-tagged recombinant hLIGHT (Gly66-Val240 with N-terminal FLAG), native form (human) (UniProt O43557). Described as above.

B1: E13 antibody (produced by hybridoma 124E13, ATCC PTA-7842) (antibody, human IgG1, V domains shown)
VH: EVQLVESGGGLVKPGGSLRLSCAASGFTLSNAWMSWVRQAPGKGLEWVGRIKSKIDGGTTDYAAPVKGRFTISRDDSKNTLFLQMNSLKTEDTAVYYCTTAMAGAFGFWGQGTLVTVSS
VL: [letters of about 120 residues left out]
Consider B1, for which the lowest detection limit (dot blot) in test [1] and in test [2] was 0.64 ng in each case.

B2: E1 antibody (produced by hybridoma 124E1, ATCC PTA-7729) (antibody, human IgG1, V domains shown)
VH: EVQLVESGGGLVQPGGSLRLSCAASGFTFSRFNMNWVRQAPGKGLEWVSYISSSSYTIYYADSVKGRFTISRDNAKNSLDLQMNSLRDEDTAVYYCARSIAAAFDYWGQGALVTVSS
VL: [letters of about 100 residues left out]YTFGQGTKLEIK
B2: the lowest detection limit (dot blot) in test [1] was 139 ng; in test [2], 23 ng.
